The target of this assay is Nonstructural protein 3 (Zika virus) (UniProt A0A024AXB9).
Setting [1] is: PRVABC59, Concentration 15.0 uM, Number of replicates 1.0.
[2] abbreviates: PRVABC59, Concentration 10.0 uM, Number of replicates 1.0.
Where [3] appears, read: PRVABC59, Concentration 50.0 uM, Number of replicates 1.0.

In ChEMBL document CHEMBL5606458, “ASAP - ZIKV NS2B-NS3 protease fluorescence single point” (2024) one finds inhibition data, which are given here for 23 compounds.

Structures are written as SMILES. Screen size: about 2,700 compounds; about 160 (5.9%) showed an effect of 50% or more. Some of the results follow.

Chain of UniProt A0A024AXB9 (A0A024AXB9 as listed by the source): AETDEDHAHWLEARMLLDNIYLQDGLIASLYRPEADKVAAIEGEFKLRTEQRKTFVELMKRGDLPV

Usually inhibition stands for the drop in the measured response relative to a control, in per cent. Consider `O=C(c1cc(Cl)ccc1NS(=O)(=O)c1ccc(Oc2ccccc2Cl)cc1)N1CCCN(CCCc2ccccc2)CC1`, for which the inhibition under setting [1] worked out at 11.4%.

As to `CCCN(C(=O)c1cc(Cl)ccc1NS(=O)(=O)c1ccc(Oc2ccccc2Cl)cc1)[C@@H](C)C(=O)Nc1ccccc1C`, under setting [1], the inhibition is 16.4%.

Consider `CC(C)N(Cc1cnn(C)c1)C(=O)C1CCN(c2ccc(C=O)cc2)CC1`, for which, under setting [2], the inhibition worked out at 22.2%.

Regarding `Cc1cc(CO)c2cccc(CC(=O)Nc3ccc(C(=O)O)o3)c2n1`, the inhibition was 42.9% (PRVABC59, Concentration 49.95 uM, Number of replicates 2.0, Standard deviation 1.3790313962849292 %) and 40.6% (PRVABC59, Concentration 99.9 uM, Number of replicates 2.0, Standard deviation 0.49288480262410383 %).

As to `Cc1cc(CO)c2cccc(Cc3cccc(C(=O)N[C@@H](C)C(N)=O)c3)c2n1`, the inhibition (PRVABC59, Concentration 49.95 uM, Number of replicates 2.0, Standard deviation 0.7183540891801647 %) was -2.76% and the inhibition (PRVABC59, Concentration 99.9 uM, Number of replicates 2.0, Standard deviation 0.8913881864758827 %) worked out at 0.968%.

For `O=C(NCc1cccc(OC2CCCC2)c1)c1cc(Cl)ccc1NS(=O)(=O)c1ccc(Oc2ccccc2Cl)cc1`, under setting [1], the inhibition stood at 15.9%.

Consider `COc1ccc(C[C@H]2c3cc(OC)c(OC)cc3CCN2C(=O)C2CCN(c3ccc(C=O)cc3)CC2)cc1OC`, for which, under setting [3], the inhibition was 23%.

Turning to `CN(C)Cc1ccc(S(=O)(=O)Nc2cc(Cl)cc(C(=O)NC(C)(C)CO)c2)cc1`, the inhibition was -3.27% (PRVABC59, Concentration 49.5 uM, Number of replicates 2.0, Standard deviation 0.8292029981621207 %); -3% (PRVABC59, Concentration 99.01 uM, Number of replicates 2.0, Standard deviation 0.14749390788823794 %); -2.39% (PRVABC59, Concentration 198.0 uM, Number of replicates 2.0, Standard deviation 1.088216371392123 %).

Turning to `Cc1ccc2n1CCN(C(=O)c1cc(Cl)ccc1NS(=O)(=O)c1ccc(Oc3ccccc3Cl)cc1)[C@H]2C`, the inhibition under setting [1] came to 8.22%.

Consider `COc1cccc(N2C[C@@H](NC(=O)C3CCN(c4ccc(C=O)cc4)CC3)CC2=O)c1`, for which the inhibition under setting [3] was found to be 22.7%.

For `CN(C)Cc1ccc(CN(C)C(=O)C2CCN(c3ccc(C=O)cc3)CC2)cc1`, the inhibition under setting [3] stood at 24.4%.

Turning to `CN(Cc1ccc(Cl)cc1)C(=O)C1CCN(c2ccc(C=O)cc2)CC1`, under setting [2], the inhibition is 24%.

In the case of `CNC(=O)c1cc(Cl)ccc1NS(=O)(=O)c1ccc(N2CCN(C)CC2)cc1`, the inhibition (PRVABC59, Concentration 49.5 uM, Number of replicates 2.0, Standard deviation 2.486001218656217 %) was -1.18%; the inhibition (PRVABC59, Concentration 99.01 uM, Number of replicates 2.0, Standard deviation 0.5614202987498508 %) is -4.77%; the inhibition (PRVABC59, Concentration 198.0 uM, Number of replicates 2.0, Standard deviation 0.9410855164569579 %) was -8.15%.

For the compound `O=Cc1ccc(N2CCC(C(=O)NCC(=O)c3ccc(O)cc3)CC2)cc1`, under setting [3], the inhibition was found to be 25.6%.

On to `CN(Cc1nc(-c2cccnc2)no1)C(=O)c1cc(Cl)ccc1NS(=O)(=O)c1ccc(Oc2ccccc2Cl)cc1`, for which the inhibition under setting [1] was 17.5%.

As for `Oc1c(CNCc2nnc3ccccn23)ccc(F)c1F`, the inhibition runs as follows: (PRVABC59, Concentration 49.5 uM, Number of replicates 2.0, Standard deviation 0.43552041298986643 %) 3.78%; (PRVABC59, Concentration 99.01 uM, Number of replicates 2.0, Standard deviation 1.449492497625442 %) 5.57%; (PRVABC59, Concentration 198.0 uM, Number of replicates 2.0, Standard deviation 1.5520668001329512 %) 11.2%.

As to `O=Cc1ccc(N2CCC(C(=O)Nc3ccc(F)c(Br)c3)CC2)cc1`, the inhibition under setting [3] is 21.1%.

`NC(=O)c1ccc(CNC(=O)NCc2ccc(OCc3ccccc3)cc2)cc1`: the inhibition was -2.38% (PRVABC59, Concentration 49.5 uM, Number of replicates 2.0, Standard deviation 0.3403841863075598 %); 1.69% (PRVABC59, Concentration 99.01 uM, Number of replicates 2.0, Standard deviation 1.5524843489611484 %); -0.929% (PRVABC59, Concentration 198.0 uM, Number of replicates 2.0, Standard deviation 0.6537868242088397 %).

On to `COc1ccc(CN(C)C(=O)C2CCN(c3ccc(C=O)cc3)CC2)c(OC)c1`, for which the inhibition under setting [3] stood at 24.2%.

`CC(C)(CO)NC(=O)c1cc(Cl)cc(CCc2ccccn2)c1`: the inhibition is, setting by setting: (PRVABC59, Concentration 49.5 uM, Number of replicates 2.0, Standard deviation 2.485999069166943 %) -2.62%; (PRVABC59, Concentration 99.01 uM, Number of replicates 2.0, Standard deviation 3.2080054251149557 %) -2.2%; (PRVABC59, Concentration 198.0 uM, Number of replicates 2.0, Standard deviation 3.186673566921152 %) -0.254%.

Take `O=C(c1cc(Cl)ccc1NS(=O)(=O)c1ccc(Oc2ccccc2Cl)cc1)N1CCc2c(Br)cccc2C1`: the inhibition under setting [1] was 16.3%.

Turning to `Cc1cc(CO)c2cccc(Cc3cccc(C(=O)Nc4cc(O)[nH]n4)c3)c2n1`, the inhibition is 11.6% (PRVABC59, Concentration 49.95 uM, Number of replicates 2.0, Standard deviation 1.5206029976078104 %) and 28.2% (PRVABC59, Concentration 99.9 uM, Number of replicates 2.0, Standard deviation 1.0224744526793752 %).

Turning to `O=Cc1ccc(N2CCC(C(=O)Nc3ccc4c(c3)C(=O)NC4=O)CC2)cc1`, the inhibition under setting [3] came out at 29.5%.
